# The other results are listed elsewhere or left out.
# Tested on: PfSIP2 AP2 domain 1 (GST-tagged)
# Test: gcPBM binding intensity (ln(normalized median fluorescence intensity)); higher = stronger DNA binding
# Summary of the method: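 Using an Agilent 4 × 180k array, primer-extended double-stranded 36-bp intergenic genomic probes and negative controls were exposed for 1 h to GST-fused P. falciparum DNA-binding domains expressed in E. coli. Binding was carried out in 1× PBS with 1% milk, 0.2 mg/ml BSA, 0.5% salmon testes DNA and 0.03% Triton X-100, and protein was detected with Alexa488 anti-GST antibody and a 488 nm scan. Binding intensity is the highest Masliner-normalised natural-log median intensity across replicate spots of either probe orientation.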
row,Sequence,gcPBM binding intensity (ln)
1,TTAACATAGATATATACACACCAATGATGGCATTTA [CACACA_site6840],6.71
2,TATATATATATATATATACACACTATATAATTCAAA [CACACA_site1023],9.03
3,TTTTTTTTTTTTTAGAGTACACACTTTTTTACATTT [XGTACX_site8159],7.19
4,CATAAAATATAAAACACACACACATATATTTATATA [CACACA_site6247],6.95
5,AAATAAAAGTTCACCTGTACACACATATATATATGT [XGTACX_site3513],7.13
6,ATATATAATACTACAGTGCAATATATTATATTTGTT,7.76
7,TTCCTCTTAAAATATACACACTGATTTAAGAAAAAA [CACACA_site5770],7.21
8,GCAAATCATGCTATGGTGCATATGTAAGATGAGCAT,10.6
9,TTGTGATTATTATATTGTACAATAAGTATTAAAGAA [XGTACX_site2753],7.26
10,ATACTAAATATAAATTGTACTTTATTTATATTGAGA [XGTACX_site8699],7.1
11,AGAATACATCTATGAACACACAGAGTTTTAAAAAAT [CACACA_site5514],6.76
12,TTTTTCATTTAACAGAAGGGAGATAAAAAAAAAAAA [TGCATGCA_negctrl_site261],7.12
13,ATATTATTTTAAAGTACACACATATATTGATATATA [CACACA_site7153],7.24
14,AATAATTATAAAAAATGTACAAAAAAAAAAAAAAAA [XGTACX_site3681],7.13
15,GTATGTATGTATGTATGTACGTATGTATGTATATAT [XGTACX_site3369],8.32
16,AAAATAATATTTAATACACACATAATTATAATATAA [CACACA_site782],6.9
17,ATTTTTAATTGAATCACACATTTCCTTTCTTTTGTG [CACACA_site4438],6.97
18,ACCTTTTGGATTATATGTACATATATATATATATAT [XGTACX_site2687],9.59
19,ATTAAAAATAAGAAGAGTACATATAATATATATACA [XGTACX_site3092],6.87
20,TTAAAAAGAAAGTTCACACACATATATATGACGGAA [CACACA_site2602],7.12
21,CATAGAATAATTTATTGTACGTGCATGCTATTTTTT [XGTACX_site8984],7
22,TATACATTTTTATAAAGTACACAAAAATAAATATAA [XGTACX_site1647],7.13

row,Sequence,gcPBM binding intensity (ln)
1,ATTAAATATATGATGTGTACATATTCGTGTATGTTT [XGTACX_site2141],7.06
2,AAACAGAATACATATACACACATACAAAAAAGTGCA [CACACA_site8235],7.52
3,AAAATAAATTTTTATGTTATATATACAATTTCTCTA [CACACA_negctrl_site1760],6.73
4,TATAATATTTATATAACACACATATATATTTATTTA [CACACA_site280],6.92
5,AATGCTATCTTCTTATTTTTCATACACAACATGAAC [CACACA_negctrl_site1809],7.16
6,TTATGAAATAGAATAACACACATATTTATATATGTG [CACACA_site2050],6.73
7,TATTTTTTTAAAAATACACACATAAAATCATGAAAA [CACACA_site1085],7.14
8,TTTTTTTATATTTTTAGTACACATTGGTATATATAT [XGTACX_site4114],7.53
9,ATATATATATGTCAAAGTACTAAAAATATATACATA [XGTACX_site3397],8.76
10,TATCACATATTATGATGTACAAGGATTCTGACTAAT [XGTACX_site1196],6.75
11,TTTATTTATCTGAACACATGCAGACAAATAACATAT [TGCATGCA_site929],6.91
12,ATTATATATAAACACACACACATGCATGCACATATA [CACACA_site4237],8.9
13,CATAAACTTTATAACACACACTTATAAATATAAATA [CACACA_site6646],7.04
14,GTTATAAAATATGGCACACAAAATGTAAGTAAATGA [CACACA_site1458],7.23
15,ATATATTTTGTTATGGTGCGTAAGAAATATATTCTT [GTGCAC_site9825],8.74
16,GATCTTTAAATTTATTGTACATAAATGTATATGTTA [XGTACX_site1107],7.04
17,TATATATTATAAAATAGTACACAGAATTTAAATATA [XGTACX_site100],6.95
18,TATATATAGAAACACACACACATATATATATATTTT [CACACA_site2540],7.1
19,TTGTTGATTGTTATTTATCATTAGATGTAAAATATG [CACACA_negctrl_site927],6.99
20,TCTTTTAAACAGTACACACACACATATATATATATA [CACACA_site924],9.59
21,AATATTTTTTTATAAACACACATATAAATAAATATA [CACACA_site7622],6.99
22,ATATCTATAATAAACACACACATATACCTATAGGTA [CACACA_site7596],7.02

# Reference: the supplement of paper PMC11417369
